Experimental data as given in PubChem BioAssay AID1460 (National Center for Advancing Translational Sciences (NCATS), 2008).
In all, about 270,000 compounds went through this assay and about 5,800 (2.1%) were called active. Inconclusive results, whose numbers are uncertain, are shown with a selection of clear calls. The call rests on the fitted dose curve; in most records, active means well fitted inhibition curve with a large enough effect; inconclusive means small, poorly fitted or top-dose-only effect; inactive means flat fitted curve, though single readings scatter. A potency beside an inconclusive call is a rough fit, not a confirmed value.

These molecules were tested against Microtubule-associated protein tau (Homo sapiens) (UniProt P10636) (assay: qHTS for Inhibitors of Tau Fibril Formation, Thioflavin T Binding). Details: recombinant tau K18 P301L (four-repeat tau fragment), heparin-induced fibrillization, ThT fluorescence; series mostly up to 57.4 µM; activity, negative = inhibition: at the top concentration.
UniProt P10636, sequence (P10636 whole entry, looked up, the tested form may be a part): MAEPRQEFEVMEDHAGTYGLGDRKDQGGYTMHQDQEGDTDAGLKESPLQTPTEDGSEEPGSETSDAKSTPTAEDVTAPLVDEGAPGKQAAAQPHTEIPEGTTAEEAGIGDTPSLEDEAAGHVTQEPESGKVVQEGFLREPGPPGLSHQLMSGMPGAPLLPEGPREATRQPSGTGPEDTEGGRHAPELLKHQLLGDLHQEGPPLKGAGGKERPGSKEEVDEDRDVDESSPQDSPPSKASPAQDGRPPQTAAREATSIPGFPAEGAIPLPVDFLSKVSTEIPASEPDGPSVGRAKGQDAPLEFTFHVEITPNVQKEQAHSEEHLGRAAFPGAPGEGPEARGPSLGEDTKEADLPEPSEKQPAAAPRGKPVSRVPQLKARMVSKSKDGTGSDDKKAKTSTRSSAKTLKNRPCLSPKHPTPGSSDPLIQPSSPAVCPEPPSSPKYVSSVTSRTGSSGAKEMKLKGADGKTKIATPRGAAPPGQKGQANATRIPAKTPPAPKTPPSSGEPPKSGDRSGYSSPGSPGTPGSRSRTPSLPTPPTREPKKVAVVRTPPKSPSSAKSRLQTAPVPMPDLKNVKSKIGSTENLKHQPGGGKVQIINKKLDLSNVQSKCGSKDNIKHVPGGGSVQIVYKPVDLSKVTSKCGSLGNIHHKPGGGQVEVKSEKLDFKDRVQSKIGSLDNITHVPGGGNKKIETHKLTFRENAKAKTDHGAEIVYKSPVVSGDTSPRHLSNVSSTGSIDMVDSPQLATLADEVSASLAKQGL
In short: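 In this qHTS, human K18 P301L tau is incubated with compound and heparin for 6 hr at 37 C, and Thioflavin T fluorescence then reports fibril load.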
Further: nearly all actives have a fitted effect of over 55% in size.
On the % scale 0 is the no-effect control and ±100 the full control effect; potency means the concentration at half of the fitted maximal effect; tags describe the fitted curve by direction and shape.

| SMILES | activity, negative = inhibition | Potency |
| --- | --- | --- |
| COc1ccc(C(CC(=O)Nc2ccccn2)N2Cc3ccccc3C2=O)cc1OC (stereo not drawn) | inactive: -1.24% |  |
| COc1cc(/C=C2\SC(=S)N(CC(=O)Nc3cccnc3)C2=O)cc(OC)c1OC |  | inconclusive: 14.1 µM [inhibitor, partial curve] |
| COc1ccc(/C=C/c2nc(C#N)c(N3CCC(C(N)=O)CC3)o2)cc1OC |  | inconclusive: 20 µM [inhibitor, single point] |
| CCn1c(SCC(=O)NNC(=O)c2ccc(OC)cc2)nnc1-c1ccco1 |  | active: 5.62 µM |
| CC(C)CN(c1ccccc1)S(=O)(=O)c1nnc(NC(=O)C2CCCCC2)s1 |  | inconclusive: 0.891 µM [inhibitor, full curve] |
| CC1=NN(c2ccc(S(=O)(=O)O)cc2C)C(=O)C1 |  | inconclusive: 5.62 µM [inhibitor, partial curve] |
| CC(=O)OC(COc1ccccc1)Cn1cnc2ccccc21 (stereo not drawn) |  | inconclusive: 11.2 µM [inhibitor, partial curve] |
| CC(C)CC(=O)Nc1ccc(C(=O)NNC(=S)NC(=O)C2CCCCC2)cc1 |  | inconclusive: 22.4 µM [inhibitor, partial curve, poor fit] |
| Cc1cc(C)cc(NC(=S)NCc2ccc3[nH]c4c(c3c2)CCCC4)c1 |  | inconclusive: 7.94 µM [inhibitor, partial curve] |
| COc1ccccc1NC(=O)Cc1nnc(SCC(=O)Nc2ccccc2F)n1C | inactive: -7.09% |  |
| c1cc2c(cc1-c1csc(NNC3=NCCCCC3)n1)OCCO2 |  | active: 25.1 µM |
| CCc1ccc(N2C(=O)c3sc4nnc(C)c(=O)n4c3C2=O)cc1 |  | inconclusive: 15.8 µM [inhibitor, single point] |
| CC(NC(=O)CCc1cn(Cc2ccccc2Cl)c2ccccc12)c1ccccc1 (stereo not drawn) |  | inconclusive: 14.1 µM [inhibitor, single point] |
| S=c1[nH]nc(-c2cc(-c3ccccc3)n[nH]2)n1/N=C/c1ccc(Cl)c(Cl)c1 |  | inconclusive: 39.8 µM [inhibitor, partial curve] |
| O=C(NN=C1CCC(=NNC(=O)c2cccnc2)CC1)c1cccnc1 |  | active: 39.8 µM |
| CCc1nc(N2CCN(Cc3ccc4c(c3)OCO4)CC2)c2oc3ccccc3c2n1 |  | inconclusive: 25.1 µM [inhibitor, single point] |
| C=CCOC(=O)C(C#N)c1nc2ccccc2nc1N1CCC(C(=O)OCC)CC1 (stereo not drawn) |  | inconclusive: 17.8 µM [inhibitor, single point] |
| O=[N+]([O-])c1ccc(S(=O)(=O)Nc2ccc(-c3csc(-c4ccccc4)n3)cc2)cc1 |  | inconclusive: 14.1 µM [inhibitor, partial curve] |
